Experimental data from EPA's CvTdb concentration-time database.
The source gives many values for each of these; only a part stands here.

Columns and labels:
Assay in all cases: concentration in plasma after dosing
Rat [1] = conditions: 5 min; dosed: 2-Hydroxy-4-methoxybenzophenone; 8 mg/kg; iv; Male; F344
Mouse [2] = conditions: 4 h; dosed: 2-Hydroxy-4-methoxybenzophenone; 250 mg/kg; oral; Male; B6C3F1
Rat [3] = conditions: 2 h; dosed: 2-Hydroxy-4-methoxybenzophenone; 100 mg/kg; oral; Male; F344
Mouse [4] = conditions: 1 h; dosed: 2-Hydroxy-4-methoxybenzophenone; 250 mg/kg; oral; Male; B6C3F1
Rat [5] = conditions: dosed: 2-Hydroxy-4-methoxybenzophenone, 500 mg/kg, oral, Female, F344
Mouse [6] = conditions: 8 h; dosed: 2-Hydroxy-4-methoxybenzophenone; 500 mg/kg; oral; Female; B6C3F1
Mouse [7] = conditions: 4 h; dosed: 2-Hydroxy-4-methoxybenzophenone; 50 mg/kg; iv; Female; B6C3F1
Rat [8] = conditions: dosed: 2-Hydroxy-4-methoxybenzophenone, 250 mg/kg, oral, Female, F344
Mouse [9] = conditions: 1.5 h; dosed: 2-Hydroxy-4-methoxybenzophenone; 250 mg/kg; oral; Female; B6C3F1
Rat [10] = conditions: 16 h; dosed: 2-Hydroxy-4-methoxybenzophenone; 500 mg/kg; oral; Male; F344
Mouse [11] = conditions: 16 h; dosed: 2-Hydroxy-4-methoxybenzophenone; 50 mg/kg; iv; Female; B6C3F1
Rat [12] = conditions: 2 h; dosed: 2-Hydroxy-4-methoxybenzophenone; 250 mg/kg; oral; Female; F344
Mouse [13] = conditions: 5 min; dosed: 2-Hydroxy-4-methoxybenzophenone; 500 mg/kg; oral; Female; B6C3F1
Mouse [14] = conditions: 6 h; dosed: 2-Hydroxy-4-methoxybenzophenone; 50 mg/kg; iv; Male; B6C3F1
Rat [15] = conditions: 6 h; dosed: 2-Hydroxy-4-methoxybenzophenone; 500 mg/kg; oral; Female; F344
Mouse [16] = conditions: 5 h; dosed: 2-Hydroxy-4-methoxybenzophenone; 250 mg/kg; oral; Female; B6C3F1
Mouse [17] = conditions: 0.5 h; dosed: 2-Hydroxy-4-methoxybenzophenone; 500 mg/kg; oral; Female; B6C3F1
Mouse [18] = conditions: 5 min; dosed: 2-Hydroxy-4-methoxybenzophenone; 500 mg/kg; oral; Male; B6C3F1
Rat [19] = conditions: 6 h; dosed: 2-Hydroxy-4-methoxybenzophenone; 500 mg/kg; oral; Female; F344; remark: listed apart in the source
Mouse [20] = conditions: 4 h; dosed: 2-Hydroxy-4-methoxybenzophenone; 50 mg/kg; iv; Female; B6C3F1; remark: listed apart in the source
Rat [21] = conditions: dosed: 2-Hydroxy-4-methoxybenzophenone, 100 mg/kg, oral, Female, F344
Mouse [22] = conditions: 2.5 min; dosed: 2-Hydroxy-4-methoxybenzophenone; 500 mg/kg; oral; Male; B6C3F1
Mouse [23] = conditions: 1 h; dosed: 2-Hydroxy-4-methoxybenzophenone; 50 mg/kg; iv; Female; B6C3F1
Mouse [24] = conditions: 1.5 h; dosed: 2-Hydroxy-4-methoxybenzophenone; 50 mg/kg; iv; Male; B6C3F1
Mouse [25] = conditions: 5 min; dosed: 2-Hydroxy-4-methoxybenzophenone; 50 mg/kg; iv; Female; B6C3F1
Mouse [26] = conditions: 16 h; dosed: 2-Hydroxy-4-methoxybenzophenone; 50 mg/kg; iv; Male; B6C3F1
Rat [27] = conditions: dosed: 2-Hydroxy-4-methoxybenzophenone, 250 mg/kg, oral, Male, F344
Rat [28] = conditions: dosed: 2-Hydroxy-4-methoxybenzophenone, 500 mg/kg, oral, Female, F344; remark: listed apart in the source
Rat [29] = conditions: dosed: Perfluorohexanoic Acid, 40 mg/kg, Male, F344
Rat [30] = conditions: dosed: Perfluorohexanoic Acid, 40 mg/kg, Male, F344; remark: listed apart in the source
Rat [31] = conditions: dosed: Perfluorohexanoic Acid, 40 mg/kg, Male, F344; remark: listed apart in the source
Rat [32] = conditions: dosed: Perfluorohexanoic Acid, 40 mg/kg, Male, F344; remark: listed apart in the source
Rat [33] = conditions: 0.5 h; dosed: Perfluorohexanoic Acid; 80 mg/kg; oral; Female; Harlan Sprague Dawley
Rat [34] = conditions: 1 h; dosed: Perfluorohexanoic Acid; 40 mg/kg; Male; F344
Rat [35] = conditions: 12 h; dosed: Perfluorohexanoic Acid; 80 mg/kg; oral; Male; Harlan Sprague Dawley
Rat [36] = conditions: 1 h; dosed: Perfluorohexanoic Acid; 40 mg/kg; oral; Male; Harlan Sprague Dawley
Rat [37] = conditions: dosed: Perfluorohexanoic Acid, 80 mg/kg, oral, Female, Harlan Sprague Dawley
Rat [38] = conditions: 6 h; dosed: Perfluorohexanoic Acid; 80 mg/kg; oral; Male; Harlan Sprague Dawley

O=C(c1ccccc1)c1ccc(O)cc1O [2,4-Dihydroxybenzophenone]
Conditions	concentration in plasma [ng/mL]
Mouse [2]	293
Mouse [4]	465
Mouse [6]	131
Mouse [7]	71.2
Mouse [9]	266
Mouse [11]	30.5
Mouse [13]	1280
Mouse [14]	140
Rat [1]	88.5
Rat [3]	81.7
Rat [10]	47.4
Rat [12]	230
Rat [15]	220

concentration in plasma [ng/mL]
Conditions	1 h	1.5 h	8 h
Rat [5]	1250	–	295
Rat [8]	–	566	132

COc1ccc(C(=O)c2ccccc2)c(O)c1 [2-Hydroxy-4-methoxybenzophenone]
Conditions	concentration in plasma [ng/mL]
Mouse [16]	27.4
Mouse [17]	1470
Mouse [18]	45.9
Mouse [20]	115
Mouse [22]	22
Mouse [23]	1130
Mouse [24]	431
Mouse [25]	20100
Mouse [26]	15.9
Rat [19]	60

concentration in plasma [ng/mL]
Conditions	1 h	2 h	5 min	6 h
Rat [21]	512	–	–	9.43
Rat [27]	250	–	–	46.8
Rat [28]	–	759	25.8	–

O=C(O)C(F)(F)C(F)(F)C(F)(F)C(F)(F)C(F)(F)F [Perfluorohexanoic Acid]
Conditions	concentration in plasma [ng/mL]
Rat [29], 0.25 h	176000
Rat [29], 6 h	1190
Rat [30], 0.5 h	118000
Rat [30], 12 h	507
Rat [31], 0.5 h	115000
Rat [31], 12 h	352
Rat [32], 0.25 h	209000
Rat [32], 6 h	2450
Rat [37], 0 h	28.8
Rat [37], 0.75 h	76800

Conditions	concentration in plasma [ng/mL]
Rat [33]	56600
Rat [34]	45200
Rat [35]	3220
Rat [36]	27100
Rat [38]	27500
